For one data set, the target named is 11β-HSD1 Reductase (Rattus norvegicus, UniProt P16232). The data set can be described thus: Metabolism of 3H-11-dehydrocorticosterone back to corticosterone by aortic rings. Also noted: from tissue; host or cells: rat (Sprague-Dawley) thoracic aortic rings, endothelium intact. The conditions noted are these: with 11-keto-progesterone. The format is cell-based. As for the experimental part: The effects of 11β-HSD1 and 11β-HSD2 antisense on the inter-conversion of ^3H-corticosterone and ^3H-11-dehydro-corticosterone by aortic rings was also determined. Rings (2-3 mm) obtained in a similar manner as those in the contraction studies, were incubated in 1 ml DMEM/F12 media containing 1% FBS at 37° C. under 95% O2-5% CO2 in 24-well culture plates. Rings were incubated for 24 hours with: • (i) ^3H-corticosterone (10 nmol/L)±11β-HSD2 or 11β-HSD1 antisense (3 μmol/L); control groups received nonsense oligomers. The amount of ^3H-11-dehydro-corticqsterone in the incubation medium after 24 hrs was then measured. The effects of 11β-HSD1 antisense/nonsense were measured in quadruplicate (n=6 aortic rings per well) and the effects of 11β-HSD2 antisense/nonsense in duplicate (n=8 aortic rings per well), • (ii) ^3H-11-dehydro-corticosterone (10 nmol/L)±11β-HSD1 antisense (3 μmol/L); this experiment was performed in duplicate (n=10 aortic rings per well). Control groups were incubated with the appropriate nonsense oligomer. ^3H-corticosterone in the incubation medium after 24 hrs was then measured. In this experiment, aortic rings were also analyzed for ^3H-corticosterone content. Rings from duplicate incubations (total n=20) were blotted dry, pooled and homogenized in 50 % methanol using a Polytron. […]
Chain of UniProt P16232 (P16232 whole entry): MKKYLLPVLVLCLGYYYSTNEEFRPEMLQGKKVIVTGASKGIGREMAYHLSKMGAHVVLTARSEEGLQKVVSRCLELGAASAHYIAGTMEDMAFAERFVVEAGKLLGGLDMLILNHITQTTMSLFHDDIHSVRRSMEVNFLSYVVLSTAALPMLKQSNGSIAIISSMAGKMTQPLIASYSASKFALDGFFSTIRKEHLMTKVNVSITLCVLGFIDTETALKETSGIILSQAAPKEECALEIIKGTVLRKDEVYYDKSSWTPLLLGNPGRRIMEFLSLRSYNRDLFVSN

The subject of another data set is rat aortic rings. Nature of the data set: Contractile response of rat aortic rings to phenylephrine. The format is cell-based. As for the experimental part: Male Sprague-Dawley (1 50-200 g) rats were anesthetized with pentobarbital (50 mg/kg IP), and a median sternotomy was performed followed by the rapid removal of the thoracic aorta. The adventitia was removed, but the endothelium was left intact. The aorta was cut into 2-3 mm rings and individual rings were placed into a single well of a twenty four well culture plate and incubated at 37° C. under 95% O2-5% CO2. Each well contained 1 mL of DMEM/F12 containing 1% fetal bovine serum, streptomycin (100 μg/ml), penicillin (100 units/ml) and amphotericin (0.25 μg/ml). Aortic rings were incubated for 24 hours prior to contractility measurements with the following combinations of steroids, and antisense/nonsense oligonucleotides (3 μmol/L): • Corticosterone (10 mnol/L)+11β-HSD2 antisense or 11β-HSD2 nonsense oligomer • Corticosterone (10 nmol/L)+11β-HSD1 antisense or 11β-HSD1 nonsense oligomer • In 11-dehydrocorticosterone experiments with vehicle alone • 11-dehydrocorticosterone (100 nmol/L)+11β-HSD1 Antisense or 11β-HSD1 nonsense oligomer
Antisense phosphorothioate oligonucleotides, targeted to block either 11β-HSD2 or 11β-HSD1 gene expression, were obtained from Research Genetics, Huntsville Ala. Antisense oligomers complementary to 20 bp sequences spanning the ribosome binding/translation start site were used. Oligomer sequences were: 5′-CATAACTGCCGTCCAACAGC-3′ (SEQ ID NO. 2) for 11β-HSD1 Antisense and 5′-AGGCCAGCGCTCCATGACTT-3′ (SEQ ID NO 4) for 11β-HSD2 antisense. In control experiments the corresponding sense sequence was used as the nonsense oligomer. […]
For contraction measurements, aortic rings were suspended by tungsten wires with 1 g of tension and placed in a vessel bath containing serum free DMEM/F12 media at 37° C. aerated with 95% O2-5% CO2, at pH 7.4. […] The intensity of contraction was assessed by use of a Narishige micromanipulator and model FT03 force transducer (Grass Instrument Co. West Warwick, R.I.). Measurements were recorded on computer using the Labview 4.1 Virtual Instrument System (National Instruments, Austin, Tex.).

With `CC(=O)[C@H]1CC[C@@H]2[C@@H]3CCC4=CC(=O)CC[C@]4(C)[C@@H]3C(=O)C[C@]12C` [11-Keto-progesterone], the “metabolism of 11-dehydro-corticosterone back to corticosterone” value on 11β-HSD1 Reductase was “decreased”. Besides, the “ability of 11-dehydro-corticosterone to amplify the contractile effects of phenylephrine” value in the data set on rat aortic rings (with 11-keto-progesterone) is “diminished”.

`C[C@]12CC(=O)[C@H]3[C@@H](CCC4=CC(=O)CC[C@@]43C)[C@@H]1CC[C@@H]2C(=O)CO` [reference compound]: in the data set on rat aortic rings (rat aortic rings, 11-dehydro-corticosterone 100 nmol/L, 24 hours), the “effect of the steroid on contractile responses to phenylephrine” value is “amplifies the contractile responses”.

As for “11β-HSD1 antisense: Antisense phosphorothioate oligonucleotide blocking 11β-HSD1 gene expression, 5′-CATAACTGCCGTCCAACAGC-3′ (antisense CATAACTGCCGTCCAACAGC; all phosphorothioate, sugars by position and methylation of C not given here)”, the “ability of 11-dehydro-corticosterone to amplify the contractile response to phenylephrine, compared to nonsense oligomers” value in the data set on rat aortic rings (rings incubated 24 hours with 11-dehydro-corticosterone 100 nmol/L and antisense 3 μmol/L, significant at 100 nmol/L and 1 μmol/L phenylephrine) was “attenuated”.

(Values after patent US20060148725A1, “Selective 11beta HSD inhibitors and methods of use thereof” (The Miriam Hospital, priority 2001, published 2006).)
